Test results as given in PubChem BioAssay AID504339 (National Center for Advancing Translational Sciences (NCATS), 2011).
The whole screen tested about 390,000 compounds, of which about 17,000 (4.4%) were called active. Inconclusive means that the source gave no clear call. Such entries were picked first, then a sample of the others. The call rests on the fitted dose curve; in most records, active means well fitted inhibition curve with a large enough effect; inconclusive means small, poorly fitted or top-dose-only effect; inactive means no such curve, though single readings can be large or run the other way. A potency beside an inconclusive call is a rough fit, not a confirmed value.

Each molecule was assayed against Lysine-specific demethylase 4A (Homo sapiens) (UniProt O75164) (assay: qHTS Assay for Inhibitors of JMJD2A-Tudor Domain). Details: AlphaScreen JMJD2A-Tudor / H3K4me3 peptide binding; activity change, negative = inhibition: at 114 µM (top of the series).
Further: nearly all actives have a fitted effect of over 50% in size.
On the % scale 0 is the no-effect control and ±100 the full control effect; potency means the concentration at half of the fitted maximal effect; tags describe the fitted curve by direction and shape.

Chain of UniProt O75164 (O75164 whole entry, looked up, the tested form may be a part): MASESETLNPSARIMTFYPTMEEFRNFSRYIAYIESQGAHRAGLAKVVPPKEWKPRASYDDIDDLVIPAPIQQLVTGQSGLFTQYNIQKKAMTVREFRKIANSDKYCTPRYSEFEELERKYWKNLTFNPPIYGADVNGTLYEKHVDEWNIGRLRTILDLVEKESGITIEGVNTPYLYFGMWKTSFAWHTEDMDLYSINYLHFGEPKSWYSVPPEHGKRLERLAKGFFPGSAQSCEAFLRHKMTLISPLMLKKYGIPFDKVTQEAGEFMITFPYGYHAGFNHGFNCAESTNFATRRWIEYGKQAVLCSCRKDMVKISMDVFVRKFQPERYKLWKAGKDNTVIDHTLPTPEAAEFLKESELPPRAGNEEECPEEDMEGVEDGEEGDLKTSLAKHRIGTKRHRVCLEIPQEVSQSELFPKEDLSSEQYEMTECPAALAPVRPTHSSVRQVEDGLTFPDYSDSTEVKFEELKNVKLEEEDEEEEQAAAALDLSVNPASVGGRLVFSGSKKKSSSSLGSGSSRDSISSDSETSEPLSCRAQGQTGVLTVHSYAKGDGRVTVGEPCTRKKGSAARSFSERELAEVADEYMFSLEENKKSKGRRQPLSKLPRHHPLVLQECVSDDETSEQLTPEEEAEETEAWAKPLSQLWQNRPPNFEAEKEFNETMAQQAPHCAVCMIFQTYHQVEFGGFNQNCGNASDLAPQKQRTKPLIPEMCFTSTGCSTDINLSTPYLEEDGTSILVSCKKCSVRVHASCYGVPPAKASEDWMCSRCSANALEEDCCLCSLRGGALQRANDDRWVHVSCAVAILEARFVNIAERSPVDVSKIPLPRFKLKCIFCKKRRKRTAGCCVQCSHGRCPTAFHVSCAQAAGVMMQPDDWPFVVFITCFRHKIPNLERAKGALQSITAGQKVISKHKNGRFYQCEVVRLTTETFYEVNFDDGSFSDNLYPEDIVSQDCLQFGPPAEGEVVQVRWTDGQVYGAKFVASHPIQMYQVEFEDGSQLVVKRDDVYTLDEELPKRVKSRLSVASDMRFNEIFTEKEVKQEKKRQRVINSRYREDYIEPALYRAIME

Row | Structure (SMILES) | Potency | activity change, negative = inhibition
1 | O=C(O)c1cc(S(=O)(=O)Nc2cccc3ccccc23)c(Cl)cc1Cl | active: 79.4 µM | –
2 | O=C(Nc1cccc(-c2csc(Nc3ccc(Cl)cc3)n2)c1)c1ccccc1 | inconclusive: 50.1 µM [inhibitor, partial curve] | –
3 | CCOC(=O)C1CCCN(CC(=O)Nc2c(C(=O)OC)[nH]c3ccc(Br)cc23)C1 (centres undefined) | inconclusive: 89.1 µM [inhibitor, single point] | –
4 | CCOC(=O)/C=C(/C)N1N=C(c2ccc(OC)cc2)CC1c1cccc([N+](=O)[O-])c1 (centres undefined) | inconclusive: 25.1 µM [inhibitor, single point] | –
5 | COc1ccc(N(CC(=O)Nc2ccccc2C)S(=O)(=O)c2ccccc2[N+](=O)[O-])c(OC)c1 | inconclusive: 3.16 µM [inhibitor, partial curve] | –
6 | O=c1c2ccccc2nnn1CSc1nnc(-c2cccs2)n1Cc1ccccc1 | inconclusive: 39.8 µM [inhibitor, single point] | –
7 | CCn1c(C)c(C)c2cc(C(=O)NCCCN3CCCC3)ccc21 | active: 50.1 µM | –
8 | O=C(c1cccc([N+](=O)[O-])c1)n1nc(-c2ccccc2)nc1NCc1ccccc1 | inconclusive: 39.8 µM [inhibitor, partial curve] | –
9 | O=S(=O)(Nc1cccc2cccnc12)C1CC1 | active: 50.1 µM | –
10 | CCCc1[nH]c2ccc(C(=O)OC)cc2c1CCC | inconclusive: 50.1 µM [inhibitor, partial curve] | –
11 | Cc1cc(=O)nc2c3ccccc3n(C(C)C(=O)NCCC(C)C)n12 (centres undefined) | – | inactive: -2.94% [at 11.4 µM]
12 | Nc1ccc(N=Nc2ccccc2)cc1[N+](=O)[O-] | inconclusive: 8.91 µM [inhibitor, full curve] | –
13 | Cn1c(=O)n(C)c2cc(NS(=O)(=O)c3ccc(Br)cc3)c(NCc3ccccc3)cc21 | inconclusive: 35.5 µM [inhibitor, partial curve] | –
14 | CCN1C(=O)[C@@H]2[C@@H](c3ccc(SC4CCCCC4)c(OC)c3)N3CCC[C@@]3(C(=O)OC)[C@@H]2C1=O | inconclusive: 56.2 µM [inhibitor, partial curve] | –
15 | CCc1cc(N2CCOCC2)cc2c1[nH]c1ccccc12 | inconclusive: 12.6 µM [inhibitor, full curve] | –
16 | CN(C)c1ccc(NC(=O)CCSc2nc(-c3ccco3)cc(C(F)(F)F)n2)cc1 | inconclusive: 44.7 µM [inhibitor, partial curve] | –
17 | Cc1cccc(NC(=O)C(C)Sc2nc3nc(C)cc(C)n3n2)c1 (centres undefined) | inactive | –
18 | CCCOc1ccc(C(=O)N/N=C/c2c[nH]c3ccc(Br)cc23)cc1 | inconclusive: 63.1 µM [inhibitor, partial curve, poor fit] | –
19 | CC1(C)CC(=O)C(N=Nc2ccc(-c3ccccc3)cc2)=C(O)C1 | inconclusive: 56.2 µM [inhibitor, partial curve] | –
20 | COc1ccc2[nH]c(C)c(CCNC(=S)Nc3cccc(C)c3C)c2c1 | active: 56.2 µM | –
21 | Cc1nc(N2CCN(Cc3ccc4c(c3)OCO4)CC2)c2oc3ccccc3c2n1 | inconclusive: 28.2 µM [inhibitor, full curve] | –
22 | O=C1CCCN1CCCNCC(=O)N1c2ccccc2Sc2ccccc21 | active: 10 µM | –
23 | CCOC(=O)c1ccc(N2C(=O)c3n[nH]c(-c4cccs4)c3C2c2cccc(F)c2)cc1 (centres undefined) | inconclusive: 56.2 µM [inhibitor, partial curve] | –

Row | Structure (SMILES) | Potency | activity change, negative = inhibition
24 | O=S1(=O)CCN(Cc2cccc(C(F)(F)F)c2)CC1 | inactive | –
25 | O=C(CCN1C(=O)/C(=C\c2ccccc2)SC1=S)NCCCN1CCOCC1 | inconclusive: 39.8 µM [inhibitor, partial curve] | –
26 | CC(C)CC1NC(=S)N(C2CCCCC2)C1=O (centres undefined) | inconclusive: 7.08 µM [inhibitor, single point] | –
27 | COc1cnc(-c2ccccn2)nc1Sc1ccc(Cl)cc1 | inconclusive: 89.1 µM [inhibitor, single point] | –
28 | CCOC(=O)C1=C(C)NC(=O)NC1c1ccc(N(CC)CC)cc1 (centres undefined) | inconclusive: 63.1 µM [inhibitor, partial curve, poor fit] | –
29 | CCCCN1C(=O)C(=O)N(CC(=O)Nc2sc(CC)cc2C(=O)OCC)C1=O | inconclusive: 15.8 µM [inhibitor, full curve, poor fit] | –
30 | COc1cccc(NC(=O)C2CCN(S(=O)(=O)c3ccc4c(c3)NC(=O)CO4)CC2)c1 | inconclusive: 14.1 µM [inhibitor, full curve] | –
31 | CSc1ccccc1C(=O)Nc1cccc(C(C)=O)c1 | inconclusive: 22.4 µM [inhibitor, partial curve] | –
32 | Cc1c(Cl)c([N+](=O)[O-])nn1CCCC(=O)Nc1sc2c(c1C#N)CCC2 | inconclusive: 56.2 µM [inhibitor, partial curve] | –
33 | Cc1cccc(C(=O)Nc2nnc(-c3ccncc3)o2)c1 | inconclusive: 44.7 µM [inhibitor, partial curve] | –
34 | O=C(Cn1ccn(-c2ccc(F)cc2)c(=O)c1=O)NCCc1ccccc1 | inactive | –
35 | CCCCNC(=O)c1cc([N+](=O)[O-])[nH]n1 | inconclusive: 35.5 µM [inhibitor, partial curve] | –
36 | Nc1cc(C(=O)N2CCN(c3ccc([N+](=O)[O-])cc3)CC2)ccc1N1CC2CC(C1)c1cccc(=O)n1C2 (centres undefined) | inconclusive: 56.2 µM [inhibitor, partial curve] | –
37 | COc1ccc(C(=O)COC(=O)c2n[nH]c3ccccc23)c(OC)c1 | inconclusive: 39.8 µM [inhibitor, partial curve] | –
38 | CS(=O)(=O)c1ccccc1-c1nnc(NC(=O)CCS(=O)(=O)c2ccc(Cl)cc2)o1 | inconclusive: 22.4 µM [inhibitor, partial curve] | –
39 | c1ccc(Cc2nnc3sc(-c4ccco4)nn23)cc1 | inconclusive: 44.7 µM [inhibitor, partial curve] | –
40 | O=S(=O)(c1ccccc1)C(/C=N\O)/C=C/c1ccccc1 (centres undefined) | inconclusive: 50.1 µM [inhibitor, partial curve] | –
41 | CCOc1ccc(/C=N/NC(=O)c2cc3ccccc3cc2OC)cc1 | inactive | –
42 | Cc1ccc(C2C(C(=O)c3cc4ccccc4o3)=C(O)C(=O)N2CCN2CCOCC2)o1 (centres undefined) | active: 89.1 µM | –
43 | CCOc1ccc(NC(=S)N2CCc3cc(OC)c(OC)cc3C2COc2ccc3c(C)cc(=O)oc3c2)cc1 (centres undefined) | inactive | –
44 | CCC(=O)N1N=C(c2ccc(OC)cc2)CC1c1cn(-c2ccccc2)nc1-c1cccs1 (centres undefined) | inactive | –
45 | C=CCn1c(SCC(=O)NC(=O)Cc2ccccc2)nnc1-c1ccccc1F | inactive | –
46 | Oc1ccc(Nc2nc(N3CCCC3)c3ccccc3n2)cc1 | active: 56.2 µM | –

Row | Structure (SMILES) | Potency | activity change, negative = inhibition
47 | CCOc1ccc(NC(=O)CSc2nnc(-c3ccccn3)n2C)cc1 | inconclusive: 56.2 µM [inhibitor, partial curve] | –
48 | Cc1cc(C)n(-c2ccc(Cl)c(C(=O)OCC(=O)N3CCCCC3C)n2)n1 (centres undefined) | inactive | –
49 | O=c1cc(O)c2c(=O)[nH]c(=O)n(-c3ccccc3)c2[nH]1 | inconclusive: 39.8 µM [inhibitor, single point] | –
50 | O=C(c1ccco1)N1CCN(Cc2nc3cc(Cl)ccc3c(=O)[nH]2)CC1 | active: 14.1 µM | –
51 | N#Cc1c(-c2ccccc2)[nH]c(=O)[nH]c1=O | inactive | –
52 | c1ccc(Cn2ncc3c(NCc4ccco4)ncnc32)cc1 | inconclusive: 89.1 µM [inhibitor, partial curve] | –
53 | Cc1cccc(CSc2cn(CC(=O)N3CCCCC3)c3ccccc23)c1 | inactive | –
54 | Cc1nn(C)c(C(=O)Sc2ccccc2)c1[N+](=O)[O-] | inactive | –
55 | CC1CCN(c2oc(-c3cccs3)nc2S(=O)(=O)c2ccc(Cl)cc2)CC1 | inconclusive: 25.1 µM [inhibitor, partial curve] | –
56 | COc1ccc(C)cc1S(=O)(=O)N(CC(=O)O)c1ccc(C)cc1 | inconclusive: 79.4 µM [inhibitor, partial curve] | –
57 | O=C(NC1CC1)c1ccc(S(=O)(=O)NC2CCCCCC2)cc1 | inactive | –
58 | O=C(NC1CCN(Cc2ccccc2)CC1)c1ccccc1OCc1ccccc1Cl | inconclusive: 39.8 µM [inhibitor, partial curve] | –
59 | Cc1cc(C)c(C)c(OCCOCCNCc2ccccc2)c1 | active: 79.4 µM | –
60 | Cc1cc(C(=O)CN(Cc2ccc(F)cc2)S(=O)(=O)c2ccc3c(c2)OCCO3)c(C)n1C | inconclusive: 56.2 µM [inhibitor, partial curve] | –
61 | CCC(C)NC(=O)c1csc2c1CCCCC2 (centres undefined) | inactive | –
62 | CC1=C(C(=O)OCc2ccccc2)C(c2ccc([N+](=O)[O-])cc2)NC(=O)N1CCCCCC(=O)O (centres undefined) | inactive | –
63 | Oc1ccccc1N1CCN(c2ncnc3scc(-c4ccccc4)c23)CC1 | inconclusive: 56.2 µM [inhibitor, partial curve] | –
64 | Cc1ccc(OCC(=O)Nc2ccc3nc(SCC(=O)N4CCCC4)sc3c2)cc1 | inactive | –
65 | CCN(c1ccc(OC)cc1)S(=O)(=O)c1nnc(NC(=O)c2ccccc2Cl)s1 | inactive | –
66 | O=C(Oc1ccccc1C(=S)N1CCCCC1)c1cc([N+](=O)[O-])cc([N+](=O)[O-])c1 | inconclusive: 17.8 µM [inhibitor, full curve] | –
67 | CC(=O)C1=C(C)NC(SCC(=O)c2cc(Cl)ccc2Cl)=C(C#N)C1c1ccco1 (centres undefined) | inconclusive: 56.2 µM [inhibitor, partial curve] | –
68 | Cc1ccc(OCCn2cc(/C=C(\C#N)C(=O)NCC3CCCO3)c3ccccc32)cc1 (centres undefined) | inconclusive: 5.01 µM [inhibitor, full curve, poor fit] | –
69 | CCCn1c(N2CCN(CC(=O)Nc3ccc4c(c3)OCCO4)CC2)nc2ccccc21 | inconclusive: 89.1 µM [inhibitor, single point] | –
